# Experimental data published in the supplement of paper PMC12217912.
# This is one part of the list. The full chains were built here from the parent and the listed change. Values near 0.05 are background.
# B1: TEV protease; numbered along this chain (parent)
# chain: MGESLFKGPRDYNPISSSICHLTNESDGHTTSLYGIGFGPFIITNKHLFRRNNGTLVVQSLHGVFKVKDTTTLQQHLVDGRDMIIIRMPKDFPPFPQKLKFREPQREERICLVTTNFQTKSMSSMVSDTSCTFPSGDGIFWKHWIQTKDGQCGSPLVSTRDGFIVGIHSASNFTNTNNYFTSVPKNFMELLTNQEAQQWVSGWRLNADSVLWGGHKVFMVKPEEPFQPVKEATQL
# Variants of: B1
# Assay: raw area under fraction-flipped curve 0-4 h after induction (AUC4h, not background-subtracted), DNA-recorder readout of cleavage of the substrate (dimensionless); higher = more cleavage of the substrate by the protease variant
# Settings: temperature: 34 °C; time window: 0-4 h after rhamnose induction
# Method: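 In vivo DNA recorder in E. coli TOP10(DE3) ΔrhaA at 34 °C. Each TEVp single-site mutant (parent TEVp 0) is paired with a single-site variant of the 7-mer TEVs (canonical ENLYFQ|S). The substrate sits between flexible linkers in a Bxb1-sfGFP-TEVs-SsrA fusion, so cleavage stabilises Bxb1 and speeds flipping of a recombination array, read by NGS. The value is the raw area under the fraction-flipped curve over 0-4 h after rhamnose induction (AUC4h), with ≥20 reads per time point. It is not background-subtracted; inactive controls average about 0.047.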
# 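Further: Bxb1 expression induced with 0.2% (w/v) L-rhamnose at OD600 near 0.5, cultures sampled hourly, flipped fraction per protease–substrate barcode pair counted by paired-end Illumina sequencing.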
Variant,area with substrate ENAYFQS,area with substrate ENCYFQS,area with substrate ENDYFQS,area with substrate ENEYFQS,area with substrate ENFYFQS,area with substrate ENNYFQS,area with substrate ENQYFQS,area with substrate ENRYFQS,area with substrate ENSYFQS,area with substrate ENTYFQS,area with substrate ENVYFQS,area with substrate ENYYFQS,area with substrate ENHYFQS,area with substrate ENIYFQS,area with substrate ENPYFQS,area with substrate ENWYFQS,area with substrate ENGYFQS,area with substrate ENKYFQS,area with substrate ENMYFQS
F41K,0.0521,0.0535,0.0359,0.0469,0.0428,0.0604,0.053,0.0494,0.0518,0.0677,0.0409,0.0715,,,,,,,
F41R,0.051,0.0622,0.0474,0.0497,0.0478,0.0507,0.0581,0.0431,0.0601,0.0767,0.053,0.0611,0.053,0.0537,0.0465,0.05,,,
F41S,0.0552,0.0647,0.0586,0.0664,0.0662,0.0576,0.0607,0.0664,0.0627,0.0657,0.0604,0.0696,0.0598,0.0926,0.0619,0.0394,0.0409,0.0511,
I42E,0.035,0.0495,0.0379,0.0533,0.0554,0.0541,0.0438,0.0377,0.0443,0.04,,,0.0362,,0.0399,0.0016,0.0523,,0.0333
I42M,0.0787,0.0709,,0.0701,,,0.0544,0.0368,0.0995,0.057,0.0863,0.0609,0.0621,0.0725,0.0399,0.0525,0.0481,0.0931,0.0685
I42T,0.0594,,0.0514,0.0541,0.0424,,0.0323,,,0.0365,0.058,,0.0482,,0.0438,,0.064,0.0431,0.0574
I43M,0.0528,,0.061,0.0497,0.058,0.0594,0.0543,0.0506,0.0611,0.0296,0.0649,0.0629,0.0609,0.081,0.0598,0.0528,0.0614,0.0693,0.0672
T44V,0.0469,0.0574,0.0414,0.0532,0.0612,,0.0565,0.0577,0.057,0.053,0.0515,0.0591,0.0544,0.0819,,0.0525,,0.0541,0.0492
K46D,0.0576,0.0563,0.0658,,0.054,0.0564,0.0592,,0.0585,0.0621,0.0639,,0.0606,,0.0539,0.0508,0.0479,0.0674,0.0616
F49E,0.058,0.0435,0.0555,0.0527,0.0548,0.0584,0.0512,0.0557,0.06,0.0565,0.0354,0.0567,0.0521,0.0568,0.0481,0,0.0507,0.0559,
F49S,0.0626,0.0667,0.0561,0.0556,0.0523,0.0636,0.0739,0.0553,0.06,,0.0495,,,0.053,,0.0378,,0.0694,0.0705
R50F,0.0869,,0.0432,0.0545,,0.0673,0.0293,0.0579,0.0559,0.0733,,0.0823,,,0.0498,,0.071,0.0483,
R50Q,0.0971,0.0946,,,0.0791,0.0671,0.067,0.058,,,,0.0704,,0.11,,,0.0578,0.0678,
R50V,0.0417,0.0752,0.0602,0.0625,,0.0474,0.0541,0.0622,0.0618,0.0758,0.131,0.0554,0.064,0.122,0.0426,,0.0685,0.0696,0.0963
G54D,0.0619,0.062,0.067,0.0561,0.058,0.065,0.0543,0.0703,0.06,0.0662,0.0593,0.0215,0.0591,0.0622,0.0766,,0.0653,0.027,
G54F,0.065,0.0618,0.0561,,0.0512,0.063,0.0657,,,0.0751,0.0498,,,,0.0533,0.0224,0.0634,0.0546,0.0611
T55H,0.065,0.0876,0.0625,,,0.0368,0.0612,0.0543,,,0.0843,0.0619,0.0693,,0.0946,,0.0634,0.0606,
T55K,0.0574,0.0651,0.0596,0.0589,0.0695,,0.0573,0.0607,0.0475,,0.0745,,0.0518,0.0928,,0.0422,0.062,,
V57A,0.0562,,0.0431,0.0575,0.0507,0.0512,0.0378,,,,0.0662,,,0.0794,0.0572,0.0627,0.0576,,
V57C,0.0525,,0.0627,0.0624,0.0619,0.0682,0.0582,0.0515,0.0642,0.062,0.0752,0.0556,0.0659,,,,0.0485,0.0637,
V57D,0.0577,0.0748,0.0673,0.0562,0.0545,0.058,0.0538,,0.0566,0.0637,0.0839,,0.0597,,0.0474,0.0036,0.0561,0.0692,
V58E,0.0329,,0.0483,,,,,,0.0281,,,,,,0.0693,,,,
Q59A,0.0578,,0.0488,,,0.0575,,,0.0678,0.0686,,,,,,,0.0523,0.0569,
S60A,0.0627,0.0607,0.0618,0.0554,0.0573,0.0778,0.0741,0.0683,0.0606,0.0508,0.0648,0.0633,0.0629,0.0939,0.0564,0.004,0.0556,0.0653,0.106
L61Q,0.0505,,,0.0626,0.0638,0.0566,0.053,0.086,0.0536,,,0.0726,0.0597,,0.0663,0.0291,,,0.107
